{"source": "ChEMBL document CHEMBL4888484", "about": "“Replenishing the malaria drug discovery pipeline: Screening and hit evaluation of the MMV Hit Generation Library 1 (HGL1) against asexual blood stage Plasmodium falciparum ,using a nano luciferase reporter read-out” (2022)", "note": "Out of some 150,000 compounds screened, about 540 (0.36%) showed an effect of 50% or more. The list shows a part of the results."}
{"test_system": "Plasmodium falciparum", "test": "Primary screen in NF54 nanoGlo assay, in single point, at 2uM, 72h; a lower Z score goes with more inhibition", "type": "functional, Erythrocyte", "conditions": "timepoint 72 hour", "units": {"% Inhibition": "%"}}
{"smiles": "CCN(Cc1nnc(-c2ccccc2)o1)S(=O)(=O)c1cnn(C(F)F)c1C", "% Inhibition": -7, "Z score": 1.15}
{"smiles": "O=C(c1ccccc1)N(Cc1cccc(Cl)c1)Cc1nc2cc(Cl)ccc2o1", "% Inhibition": 7, "Z score": -0.73}
{"smiles": "Cc1ncsc1C(=O)N1CCC(n2nccn2)CC1", "% Inhibition": 2, "Z score": -0.28}
{"smiles": "CC(C)c1cc(C(=O)N(C)C[C@H]2CCCCO2)no1", "% Inhibition": 7, "Z score": -0.91}
{"smiles": "CC(C)(C)[C@@H](CO)NC(=O)Nc1nnc(C=Cc2ccco2)s1", "% Inhibition": -4, "Z score": 0.76}
{"smiles": "O=C(NC1(C(=O)O)CCC(c2ccccc2)CC1)O[C@H]1CCOC1", "note": "(some centres undefined)", "% Inhibition": -9, "Z score": 1.46}
{"smiles": "O=C(N1CCOCC1)C(F)(F)C(F)(F)C(F)(F)C(F)(F)C(F)(F)C(F)(F)F", "% Inhibition": -8, "Z score": 1.23}
{"smiles": "COCCN1C[C@@H](NC(=O)c2ccccc2Cc2ccc(C)cc2)CC1=O", "% Inhibition": -1, "Z score": 0.24}
{"smiles": "O=C(NCc1nnc2n1CCC2)c1ccc2nc(-c3ccc(F)cc3)cn2c1", "% Inhibition": -3, "Z score": 0.44}
{"smiles": "CC(C)C(NC(=O)COc1ccc(Cl)cc1Cl)C(C)C", "% Inhibition": 18, "Z score": -2.54}
{"smiles": "CC[C@H](NC(=O)c1cn(Cc2ccccc2F)nn1)c1nc2cc(C)ccc2[nH]1", "% Inhibition": -16, "Z score": 2.26}
{"smiles": "CN1O[C@@H](CC(=O)NC2CCCCCC2)N(c2ccc(Cl)cc2)C1=O", "% Inhibition": 0, "Z score": -0.03}
{"smiles": "CN1CCCCCCN(S(=O)(=O)N(C)C)CCC1=O", "% Inhibition": -12, "Z score": 1.57}
{"smiles": "Nc1ccc(CN2CCn3c(Cc4ccccc4)nnc3C2)cn1", "% Inhibition": 0, "Z score": 0.03}
{"smiles": "Cc1nn(C)cc1NC(=O)[C@@H]1CCCN(C(=O)OC(C)(C)C)[C@@H]1C", "% Inhibition": 16, "Z score": -1.82}
{"smiles": "COC[C@H](C)NC(=O)c1ccc(Br)cc1", "% Inhibition": -7, "Z score": 1.17}
{"smiles": "Nc1nccnc1C(=O)Nc1cccc(-c2c[nH]nn2)c1", "% Inhibition": 5, "Z score": -0.95}
{"smiles": "CC(=O)NC(C)(C)C(=O)Oc1ccc(C)cc1Cl", "% Inhibition": -2, "Z score": 0.4}
{"smiles": "CC(C)(C)n1nnnc1[C@@H]1CC2(CCOCC2)C(=O)N1Cc1ccco1", "% Inhibition": -7, "Z score": 0.85}
{"smiles": "O=S(=O)(N1CCCC1)N1CCCc2ccccc2CC1", "% Inhibition": -4, "Z score": 0.7}
{"smiles": "c1ccc(-c2cnn3cc(CN(Cc4ccccn4)C4CC4)cnc23)cc1", "% Inhibition": 1, "Z score": -0.24}
{"smiles": "CCN1CC2(CCN(C[C@]3(c4cccc(F)c4)CCOC3)CC2)OC1=O", "% Inhibition": -12, "Z score": 1.47}
{"smiles": "NC(=O)c1cc2c(nc1N1CC[C@@]3(CCCN(CC4CCC4)C3=O)C1)CCC2", "% Inhibition": 8, "Z score": -1.14}
{"smiles": "CCc1nc2cc(NC(=O)[C@@H]3CCCCN3C(=O)c3ccccc3)ccc2n1CC", "% Inhibition": -19, "Z score": 2.81}
{"smiles": "COc1cc(CN2CC[C@H](S(=O)(=O)N3CCCC3)C2)ccc1C", "% Inhibition": -8, "Z score": 1.17}
{"smiles": "Cc1ccc(C(N)=O)cc1NCCc1cccs1", "% Inhibition": -9, "Z score": 1.73}
{"smiles": "O=C1C2CC=CCC2C(=O)N1CNc1cccc(Cl)c1", "note": "(centres undefined)", "% Inhibition": -9, "Z score": 1.52}
{"smiles": "CC(C)C(=O)N1CCC(Nc2ccc3nnnn3n2)CC1", "% Inhibition": -10, "Z score": 1.98}
{"smiles": "Cc1nc(C(C)C)oc1CNC(=O)[C@@H]1CN(C)C(=O)N1", "% Inhibition": 0, "Z score": -0.08}
{"smiles": "CCc1ccccc1S(=O)(=O)N1CC[C@@]2(CCC(=O)N2C)C1", "% Inhibition": -6, "Z score": 0.86}
{"smiles": "COc1ccc(S(=O)(=O)c2c(N)n(CC(C)C)c3nc4ccccc4nc23)cc1", "% Inhibition": 0, "Z score": 0.03}
{"smiles": "COc1ccc(S(=O)(=O)C2CCN(C(=O)CN3C(=O)CCC3=O)CC2)cc1", "% Inhibition": -22, "Z score": 2.88}
{"smiles": "CC(C)Oc1ccc(CNC(=O)[C@H]2C[C@H]3CCCN3[C@@]23C(=O)Nc2ccccc23)cc1", "% Inhibition": 7, "Z score": -0.67}
{"smiles": "CCCn1nc(C(=O)O)c2c1CC[C@H](N1CCN(Cc3ccccn3)CC1)C2", "% Inhibition": 6, "Z score": -0.83}
{"smiles": "CCc1noc(C)c1C(=O)Nc1cccc(C(=O)NC2CC2)c1", "% Inhibition": -6, "Z score": 1.06}
{"smiles": "Cc1nc2c(c(N[C@H]3C[C@H](c4cc(=O)[nH]c(C)n4)C3)n1)CCC2", "% Inhibition": 5, "Z score": -0.57}
{"smiles": "CC(C)n1cncc1CN(C)[C@@H](C)c1ccon1", "% Inhibition": 19, "Z score": -2.11}
{"smiles": "O=C(c1ccsc1)N1CC[C@H](N2CCc3ccccc3C2)C1", "% Inhibition": 3, "Z score": -0.39}
{"smiles": "Cc1nc(C(=O)NC2(C(N)=O)CCCC2)cs1", "% Inhibition": -8, "Z score": 1.62}
{"smiles": "CC(C)c1cc(C(=O)N[C@@H]2COCC[C@@H]2OCC2CC2)nc(N)n1", "% Inhibition": -2, "Z score": 0.14}
{"smiles": "CC1CCCC(NC(=O)CN2CCN(C3CC3)CC2)C1C", "note": "(centres undefined)", "% Inhibition": -3, "Z score": 0.53}
{"smiles": "CC(=O)Nc1ccc(OCC(=O)N2CCC(C)CC2)nc1", "% Inhibition": 6, "Z score": -1.11}
